Laboratory results as given in the supplement of paper PMC10986608.
The other results are listed elsewhere or left out. Many values rest on one well or one pass, so single values are uncertain.

These compounds were tested on Candida albicans DPL-15 (assay: growth (OD600) after compound treatment (apparently relative to screen median) (relative growth (fraction; screen median 1.02)); DPL-15 is a caspofungin-resistant clinical isolate; higher = more fungal growth (less antifungal activity)). Details: 25 µM; RPMI 1640; 48 h; 30 °C.
Work on `COC(=O)[C@H]1[C@@H](c2ccccc2)[C@]2(c3ccc(OC)cc3)Oc3cc(OC)cc(OC)c3[C@@]1(O)C2=O` yielded a growth of 1.13.
`CCOc1cc2c(cc1OCC)C[NH2+]CC2` showed a growth of 1.26.
Compound `CC(C)(C)NS(=O)(=O)OCC(Cl)(Cl)Cl` has a growth of 1.11.
`C[C@]12CC[C@H](OS(=O)(=O)Nc3cccc(Cl)c3)C[C@@H]1CC[C@@H]1[C@@H]2CC[C@]2(C)C(=O)CC[C@@H]12` gave a growth of 1.14.
Compound `CCCCCCCCC(=O)NCc1ccc(O)c(OC)c1` has a growth of 0.779.
`COc1ccc([C@@]23Oc4cc(OC)cc(OC)c4[C@@]24NC(C2CC2)=N[C@@]4(O)[C@H](C(=O)N(C)OC)[C@H]3c2ccccc2)cc1` showed a growth of 1.02.
`O=C1CN=C(c2ccccc2)c2ccccc2N1` gave a growth of 1.02.
In the case of `COC(=O)[C@@H]1[C@@H](O)[C@@]2(O)c3c(OC)cc(OC)cc3O[C@@]2(c2ccc(Br)cc2)[C@H]1c1ccccc1`, the growth is reported as 0.892.
Work on `COC(=O)[C@@H]1[C@@H](c2ccccc2)C2(c3ccc(OC)cc3)C(=O)C1(O)c1ccccc1N2C` (stereo partly drawn) yielded a growth of 0.961.
`CONC(=O)[C@H]1[C@@H](O)[C@@]2(O)c3c(OC)cc(OC)cc3O[C@@]2(c2ccc(OC)cc2)[C@@H]1c1ccccc1` showed a growth of 0.958.
Work on `CCOc1ccccc1-c1nc2c(c(=O)[nH]1)[C@@H](c1ccccc1)[C@]1(c3ccc(OC)cc3)Oc3cc(OC)cc(OC)c3[C@]21O` yielded a growth of 1.04.
`COc1ccc([C@@]23Oc4cc(OC)cc(OC)c4[C@]2(O)c2nc(-c4cnccn4)[nH]c(=O)c2[C@H]3c2ccccc2)cc1` showed a growth of 1.95.
`COc1ccc(-c2nc3c(c(=O)[nH]2)[C@@H](c2ccccc2)[C@]2(c4ccc(OC)cc4)Oc4cc(OC)cc(OC)c4[C@]32O)cc1` gave a growth of 0.915.
`COC(=O)[C@@H]1[C@@H](c2ccccc2)[C@]2(c3ccc(OC)cc3)Oc3cc(OC)cc(OC)c3[C@@]1(O)[C@@H]2O` gave a growth of 1.1.
In the case of `COc1ccc([C@]23Oc4cc(OC)cc(OC)c4[C@]24NC(C)=N[C@]4(O)[C@@H](C(=O)N(C)OC)[C@@H]3c2ccccc2)cc1`, the growth is reported as 1.09.
Work on `COc1ccc([C@@]23Oc4cc(OC)cc(OC)c4[C@]2(O)c2nc[nH]c(=O)c2[C@H]3c2ccccc2)cc1` yielded a growth of 1.03.
Work on `COC(=O)[C@@H]1[C@@H](c2ccccc2)[C@]2(c3ccc(OC)cc3)Oc3cc(OC)cc(OC)c3[C@@]1(O)[C@H]2O` yielded a growth of 0.975.
For `CO[C@H](c1ccccc1Br)[C@H](C)/C=C/[C@]1(C(=O)O)[C@@H]2c3ccccc3N(C(=O)OC(C)(C)C)[C@@H]21`, the growth was 1.11.
For `COC(=O)[C@H]1C(=O)[C@@]2(O)c3c(OC)cc(OC)cc3O[C@@]2(c2ccc(OC)cc2)[C@@H]1c1ccccc1`, the growth was 0.888.
`CCCc1c(Cl)c2c(OC)c3c(c(O)c2c(=O)n1C)-c1c(c(OC)c2oc(=O)c4c(O)ccc(O)c4c2c1O)CC3` gave a growth of 0.877.
Compound `CONC(=O)[C@@H]1[C@@H](O)[C@@]2(O)c3c(OC)cc(OC)cc3O[C@@]2(c2ccc(Br)cc2)[C@H]1c1ccccc1` has a growth of 0.898.
`COc1ccc([C@@]23Oc4cc(OC)cc(OC)c4[C@@]24NC(C)=NC4=C(C=O)[C@H]3c2ccccc2)cc1` was tested, and the growth was 1.09.
Work on `COc1ccc([C@@]23Oc4cc(OC)cc(OC)c4[C@]2(O)c2nc4n(c(=O)c2[C@H]3c2ccccc2)CCC4)cc1` yielded a growth of 1.05.
In the case of `COC(=O)[C@H]1[C@@H](c2ccccc2)[C@]2(c3ccc(Br)cc3)Nc3cc(OC)cc(OC)c3[C@@]1(O)[C@H]2O`, the growth is reported as 0.958.
In the case of `COc1ccc([C@@]23Oc4cc(OC)cc(OC)c4[C@]2(O)c2nc(C(C)C)[nH]c(=O)c2[C@H]3c2ccccc2)cc1`, the growth is reported as 1.11.
With `c1c2c(cc3c1OCO3)C[NH2+]CC2` the growth was 1.16.
Work on `CCOC(=O)COc1nc(-c2ccccc2)nc2c1[C@@H](c1ccccc1)[C@]1(c3ccc(OC)cc3)Oc3cc(OC)cc(OC)c3[C@]21O` yielded a growth of 1.08.
`CO[C@@H]1[C@H](O)CC[C@]2(O)CN(CCc3c[nH]c4ccccc34)[C@@H](CC=C(C)C)[C@](C)(O)[C@@H]12` showed a growth of 1.09.
`COC(=O)[C@@H]1[C@@H](c2ccccc2)[C@]2(c3ccc(Br)cc3)C(=O)[C@@]1(O)c1c(OC)cc(OC)cc1N2C` showed a growth of 0.847.
Compound `COc1ccc([C@@]23Oc4cc(OC)cc(OC)c4[C@@]24NC(C)=N[C@@]4(O)[C@H](C(=O)N(C)OC)[C@H]3c2ccccc2)cc1` has a growth of 0.931.
`COC(=O)[C@@H]1[C@@H](c2ccccc2)[C@]2(c3ccc(OC)cc3)Oc3cc(OC)cc(OC)c3[C@@]23N=C(C2CC2)N[C@@]13O` gave a growth of 1.09.
For `COC(=O)[C@H]1[C@H](c2ccccc2)[C@]2(c3ccc(OC)cc3)Oc3cc(OC)cc(OC)c3[C@@]1(O)C2O` (stereo partly drawn), the growth was 1.28.
For `COC(=O)[C@H]1[C@@H](O)[C@@]2(O)c3c(OC)cc(OC)cc3O[C@@]2(c2ccc(Br)cc2)[C@@H]1c1ccccc1`, the growth was 1.14.
Work on `COC(=O)C1=C(O)c2ccoc2[C@@]2(C)CCC[C@H]1C2` yielded a growth of 1.02.
In the case of `COC(=O)[C@H]1[C@H](c2ccccc2)[C@@]2(c3ccc(Br)cc3)Oc3cc(OC)cc(OC)c3[C@]1(O)[C@H]2O`, the growth is reported as 1.11.
`COC(=O)[C@@H]1[C@@H](c2ccccc2)[C@@]2(c3ccc(OC)cc3)C(=O)[C@]1(O)c1ccccc1N2C` was tested, and the growth was 1.07.
With `COc1ccc([C@@]23Oc4cc(OC)cc(OC)c4[C@]2(O)c2nc(-c4ccc(Cl)cc4)[nH]c(=O)c2[C@H]3c2ccccc2)cc1` the growth was 1.01.
`COC(=O)[C@H]1[C@@H](O)[C@@]2(O)c3c(OC)cc(O)cc3O[C@@]2(c2ccc(OC)cc2)[C@@H]1c1ccccc1` was tested, and the growth was 1.07.
`COc1cc(OC)c2c(c1)O[C@@]1(c3ccc(Br)cc3)[C@H](c3ccccc3)C[C@@H](O)[C@@]21O` gave a growth of 0.709.
With `COc1ccc([C@]23Oc4cc(OC)cc(OC)c4[C@@]2(O)c2nc4n(c(=O)c2[C@@H]3c2ccccc2)CCC4)cc1` the growth was 1.04.
With `c1c2c(cc3c1OCCO3)CNCC2` the growth was 0.969.
In the case of `COc1ccc([C@]23Oc4cc(OC)cc(OC)c4[C@](O)([C@H](c4ccccc4)[C@H]2C(=O)NCCCCNC(=O)c2ccccc2)[C@H]3O)cc1`, the growth is reported as 0.978.
`COC(=O)C1c2c(n(C)c3ccccc23)[C@H]2[C@@H](C)[C@H](OC)c3ccccc3[C@@H]12` (stereo partly drawn) showed a growth of 1.14.
`N#Cc1ccc(C(=O)COC(=O)c2ccccc2N)cc1` showed a growth of 1.1.
`COc1ccc([C@@]23Oc4cc(OC)cc(OC)c4[C@]2(O)c2nc(-c4ccc(C(F)(F)F)cc4)[nH]c(=O)c2[C@H]3c2ccccc2)cc1` was tested, and the growth was 1.13.
Work on `COc1ccc([C@@]23Oc4cc(OC)cc(OC)c4[C@]2(O)c2nc(-c4ccc(F)cc4)[nH]c(=O)c2[C@H]3c2ccccc2)cc1` yielded a growth of 1.11.
`C=C[C@H]1C[N@]2CC[C@H]1C[C@H]2[C@H](OS(N)(=O)=O)c1ccnc2ccc(OC)cc12` gave a growth of 1.12.
With `CCOP(=O)(OCC)O/C(C=C(C)C)=C1/CCC2OC2(CC=C(C)C)C1=O` (stereo not drawn) the growth was 1.04.
With `COCc1nc2c(c(=O)[nH]1)[C@@H](c1ccccc1)[C@]1(c3ccc(OC)cc3)Oc3cc(OC)cc(OC)c3[C@]21O` the growth was 1.05.
`COc1ccc(-c2nc3c(c(=O)[nH]2)[C@H](c2ccccc2)[C@@]2(c4ccc(OC)cc4)Oc4cc(OC)cc(OC)c4[C@@]32O)cc1` was tested, and the growth was 0.831.
`COC(=O)[C@H]1[C@@H](c2ccccc2)C2(c3ccc(OC)cc3)Oc3cc(OC)cc(OC)c3[C@@]1(O)C2=O` was tested, and the growth was 0.923.
`CCCCC1=N[C@@]2(O)[C@H](C(=O)OC)[C@@H](c3ccccc3)[C@]3(c4ccc(OC)cc4)Oc4cc(OC)cc(OC)c4[C@]23N1` was tested, and the growth was 0.994.
With `COCC1=N[C@@]2(O)[C@H](C(=O)OC)[C@@H](c3ccccc3)[C@]3(c4ccc(OC)cc4)Oc4cc(OC)cc(OC)c4[C@]23N1` the growth was 0.759.
Compound `COc1ccc(OC)c2c1CCNC2` has a growth of 1.22.
`COc1ccc([C@]23Oc4cc(OC)cc(OC)c4[C@@]2(O)[C@@H](O)C[C@@H]3c2ccccc2)cc1` was tested, and the growth was 1.04.
In the case of `COC(=O)[C@@H]1[C@@H](c2ccccc2)[C@]2(c3ccc(OC)cc3)Oc3cc(OC)cc(OC)c3[C@@]23N=C(C)N[C@@]13O`, the growth is reported as 0.952.
`COC(=O)C1C(=O)c2ccoc2C12CCCCC2` (stereo not drawn) gave a growth of 1.13.
With `COC(=O)[C@@H]1[C@@H](c2ccccc2)[C@@]2(c3ccc(Br)cc3)C(=O)[C@]1(O)c1c(OC)cc(OC)cc1N2C` the growth was 0.979.
